Measurements from the supplement of paper PMC4967469.
IC50 is the fitted dose that halves viability relative to control wells, and lower means more sensitive; fits outside the tested doses are given as limits. AUC sums up the same curve from the lowest dose to the 256-fold higher top dose; values near 1 show little effect. For some of these results: The top dose, if marked as inferred, was derived from the fitted curves, not read from the paper.

Columns and labels:
Test in all cases: Viability of human cancer cell lines after 72 h of drug (GDSC screen)
[1] = compound: N=C(N)NC(=N)NCCc1ccccc1 [Phenformin]; conditions: top dose 4000 µM; top dose inferred
Method: (§1)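 Human cancer cell lines in 384-well plates, medium with 10% serum, drug for 72 h over a 256-fold dose range (nine 2-fold or five 4-fold steps up to the top dose). Adherent lines were fixed and stained with the nucleic acid dye Syto60, suspension lines read with resazurin; signal relative to control wells, capped at 0 and 100%. One two-parameter sigmoid per drug and line, fitted in a mixed model over all curves with the slope shared within a line.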

[2] = compound: CNCc1ccc(-c2[nH]c3cc(F)cc4c3c2CCNC4=O)cc1 [AG-014699]; conditions: top dose 5 µM; top dose inferred
Method: as §1

[3] = compound: COc1cc2ncnc(Nc3cc(Br)c(O)c(Br)c3)c2cc1OC [WHI-P97]; conditions: top dose 10.24 µM; top dose inferred
Method: as §1

[4] = compound: CCC1=C[C@@H]2CN(C1)Cc1c([nH]c3ccccc13)[C@@](C(=O)OC)(c1cc3c(cc1OC)N(C)[C@H]1[C@@](O)(C(=O)OC)[C@H](OC(C)=O)[C@]4(CC)C=CCN5CC[C@]31[C@@H]54)C2 [Vinorelbine]; conditions: top dose 0.064 µM; top dose inferred
Method: as §1

[5] = compound: COc1cc2ncnc(Nc3ccc(F)c(Cl)c3)c2cc1OCCCN1CCOCC1 [Gefitinib]; conditions: top dose 0.5 µM
Method: as §1

[6] = compound: C=CC(=O)Nc1cc(NC(=O)c2ccc(C)c(NC(=O)c3ccno3)c2)cc(C(F)(F)F)c1 [QL-XI-92]; conditions: top dose 10.24 µM; top dose inferred
Method: as §1

[7] = compound: O=c1cc(N2CCOCC2)oc2c(-c3cccc4c3sc3ccccc34)cccc12 [NU-7441]; conditions: top dose 2 µM; top dose inferred
Method: as §1

[8] = compound: COc1cc2nccc(Oc3ccc(NC(=O)C4(C(=O)Nc5ccc(F)cc5)CC4)cc3)c2cc1OC [XL-184]; conditions: top dose 5.12 µM; top dose inferred
Method: as §1

[9] = compound: N[C@@H](CSC(c1ccccc1)(c1ccccc1)c1ccccc1)C(=O)O [S-Trityl-L-cysteine]; conditions: top dose 5.12 µM; top dose inferred
Method: as §1

[10] = compound: O=c1cc(CN2CCOCC2)occ1OCCCCCSc1ccnc2cc(C(F)(F)F)ccc12 [EHT 1864]; conditions: top dose 10 µM; top dose inferred
Method: as §1

Cell Line	AUC [1]	IC50 [1]	AUC [2]	IC50 [2]	AUC [3]	IC50 [3]	AUC [4]	IC50 [4]	AUC [5]	IC50 [5]	AUC [6]	IC50 [6]	AUC [7]	IC50 [7]	AUC [8]	IC50 [8]	AUC [9]	IC50 [9]	AUC [10]	IC50 [10]
HCC1187 (breast, suspension)	0.794	1740 µM	0.942	> 5 µM	0.971	> 10.2 µM	0.577	0.00642 µM	0.988	> 0.5 µM	0.955	> 10.2 µM	0.983	> 2 µM	0.96	> 5.12 µM	0.664	0.889 µM	0.955	> 10 µM
HCC2157 (breast, suspension)	0.425	154 µM	0.983	> 5 µM	0.986	> 10.2 µM	0.742	0.0205 µM	0.95	> 0.5 µM	0.912	> 10.2 µM	0.873	> 2 µM	0.984	> 5.12 µM	0.908	> 5.12 µM	0.931	> 10 µM
HD-MY-Z (Hodgkin lymphoma, adherent)	0.544	329 µM	0.962	> 5 µM	0.93	> 10.2 µM	0.798	0.0307 µM	0.958	> 0.5 µM	0.797	4.88 µM	0.976	> 2 µM	0.879	> 5.12 µM	0.778	2.08 µM	0.972	> 10 µM
IA-LM (large cell lung carcinoma, adherent)	0.815	2540 µM	0.982	> 5 µM	0.979	> 10.2 µM	0.512	0.00433 µM	0.974	> 0.5 µM	0.956	> 10.2 µM	0.903	> 2 µM	0.973	> 5.12 µM	0.725	1.52 µM	0.971	> 10 µM
IST-MEL1 (melanoma, adherent)	0.49	234 µM	0.967	> 5 µM	0.977	> 10.2 µM	0.883	> 0.064 µM	0.982	> 0.5 µM	0.945	> 10.2 µM	0.915	> 2 µM	0.946	> 5.12 µM	0.897	> 5.12 µM	0.972	> 10 µM
IST-SL1 (small cell lung carcinoma, semi-adherent)	0.987	> 4000 µM	0.977	> 5 µM	0.971	> 10.2 µM	0.767	0.0245 µM	0.976	> 0.5 µM	0.829	6.65 µM	0.945	> 2 µM	0.894	> 5.12 µM	0.839	3.65 µM	0.916	> 10 µM
JSC-1 (B-cell lymphoma, suspension)	0.637	596 µM	0.969	> 5 µM	0.95	> 10.2 µM	0.525	0.00468 µM	0.985	> 0.5 µM	0.74	3.09 µM	0.965	> 2 µM	0.931	> 5.12 µM	0.589	0.561 µM	0.911	> 10 µM
JVM-2 (lymphoid neoplasm, suspension)	0.788	2210 µM	0.96	> 5 µM	0.932	> 10.2 µM	0.977	> 0.064 µM	0.842	0.475 µM	0.897	> 10.2 µM	0.912	> 2 µM	0.948	> 5.12 µM	0.962	> 5.12 µM	0.982	> 10 µM
JiyoyeP-2003 (Burkitt lymphoma, suspension)	0.573	386 µM	0.989	> 5 µM	0.978	> 10.2 µM	0.688	0.0125 µM	0.964	> 0.5 µM	0.991	> 10.2 µM	0.984	> 2 µM	0.975	> 5.12 µM	0.697	1.05 µM	0.926	> 10 µM
K5 (thyroid, adherent)	0.95	> 4000 µM	0.953	> 5 µM	0.979	> 10.2 µM	0.843	0.0427 µM	0.959	> 0.5 µM	0.986	> 10.2 µM	0.945	> 2 µM	0.957	> 5.12 µM	0.67	0.929 µM	0.922	> 10 µM
KARPAS-45 (lymphoblastic leukaemia, suspension)	0.264	61.1 µM	0.979	> 5 µM	0.979	> 10.2 µM	0.499	0.00398 µM	0.987	> 0.5 µM	0.931	> 10.2 µM	0.884	1.54 µM	0.782	1.77 µM	0.705	1.07 µM	0.942	> 10 µM
